In the supplement of paper PMC8728848:
Some of the results follow.

Key:
Assay in all cases: glycan array binding signal (z-score within array); higher = stronger binding
Conditions in all cases: glycan notation: IUPAC condensed, linker removed
[1] = target: Neu5Ac(a2-6)Gal(b1-4)GlcNAc(b1-2)Man(a1-3)[Gal(b1-4)GlcNAc(b1-2)Man(a1-6)]Man(b1-4)GlcNAc(b1-4)GlcNAc
How it was run: (§1)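 Glycan array binding is given as a within-array Z-score, which can be read as non-binding when negative. The arrays, 3228 of them, came from the Consortium for Functional Glycomics database and were retained only where the protein sequence was available. Z-scores were averaged across arrays of the same protein sequence at different concentrations or buffers and across linkers.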

[2] = target: Neu5Ac(a2-6)Gal(b1-4)GlcNAc(b1-2)Man(a1-3)[GlcNAc(b1-2)Man(a1-6)]Man(b1-4)GlcNAc(b1-4)GlcNAc
How it was run: as §1

[3] = target: Neu5Ac(a2-6)Gal(b1-4)GlcNAc(b1-2)Man(a1-3)[GlcNAc(b1-2)Man(b1-4)GlcNAc(b1-2)Man(a1-6)]Man(b1-4)GlcNAc(b1-4)GlcNAc
How it was run: as §1

[4] = target: Neu5Ac(a2-6)Gal(b1-4)GlcNAc(b1-2)Man(a1-3)[Neu5Ac(a2-6)Gal(b1-4)GlcNAc(b1-2)Man(a1-6)]Man(b1-4)GlcNAc(b1-4)GlcNAc
How it was run: as §1

[5] = target: Neu5Ac(a2-6)Gal(b1-4)GlcNAc(b1-2)Man(a1-6)[Gal(b1-4)GlcNAc(b1-2)Man(a1-3)]Man(b1-4)GlcNAc(b1-4)GlcNAc
How it was run: as §1

[6] = target: Neu5Ac(a2-6)Gal(b1-4)GlcNAc(b1-2)Man(a1-6)[GlcNAc(b1-2)Man(a1-3)]Man(b1-4)GlcNAc(b1-4)GlcNAc
How it was run: as §1

[7] = target: Neu5Ac(a2-6)Gal(b1-4)GlcNAc(b1-3)Gal(b1-4)GlcNAc
How it was run: as §1

[8] = target: Neu5Ac(a2-6)Gal(b1-4)GlcNAc(b1-3)Gal(b1-4)[Fuc(a1-3)]GlcNAc(b1-3)Gal(b1-4)[Fuc(a1-3)]GlcNAc
How it was run: as §1

[9] = target: Neu5Ac(a2-6)Gal(b1-4)GlcNAc6S
How it was run: as §1

Neu5Ac(a2-6)GalNAc = target: Neu5Ac(a2-6)GalNAc
How it was run: as §1

[10] = target: Neu5Ac(a2-6)GalNAc(b1-4)GlcNAc
How it was run: as §1

Neu5Ac(a2-8)Neu5Ac = target: Neu5Ac(a2-8)Neu5Ac
How it was run: as §1

[11] = target: Neu5Ac(a2-8)Neu5Ac(a2-3)Gal(b1-4)Glc
How it was run: as §1

[12] = target: Neu5Ac(a2-8)Neu5Ac(a2-3)[GalNAc(b1-4)]Gal(b1-4)Glc
How it was run: as §1

[13] = target: Neu5Ac(a2-8)Neu5Ac(a2-8)Neu5Ac
How it was run: as §1

[14] = target: Neu5Ac(a2-8)Neu5Ac(a2-8)Neu5Ac(a2-3)Gal(b1-4)Glc
How it was run: as §1

[15] = target: Neu5Ac(a2-8)Neu5Ac(a2-8)Neu5Ac(a2-3)[GalNAc(b1-4)]Gal(b1-4)Glc
How it was run: as §1

[16] = target: Neu5Ac(a2-8)Neu5Ac(a2-8)Neu5Ac(a2-8)Neu5Ac(a2-3)[GalNAc(b1-4)]Gal(b1-4)Glc
How it was run: as §1

[17] = target: Neu5Ac(b2-6)Gal(b1-4)GlcNAc
How it was run: as §1

Neu5Ac(b2-6)GalNAc = target: Neu5Ac(b2-6)GalNAc
How it was run: as §1

[18] = target: Neu5Ac9Ac(a2-6)Gal(b1-4)GlcNAc
How it was run: as §1

[19] = target: Neu5Gc(a2-3)Gal(b1-3)GlcNAc
How it was run: as §1

[20] = target: Neu5Gc(a2-3)Gal(b1-3)[Fuc(a1-4)]GlcNAc
How it was run: as §1

Neu5Gc(a2-3)Gal(b1-4)Glc = target: Neu5Gc(a2-3)Gal(b1-4)Glc
How it was run: as §1

[21] = target: Neu5Gc(a2-3)Gal(b1-4)GlcNAc
How it was run: as §1

[22] = target: Neu5Gc(a2-3)Gal(b1-4)[Fuc(a1-3)]GlcNAc
How it was run: as §1

[23] = target: Neu5Gc(a2-6)Gal(b1-4)GlcNAc
How it was run: as §1

Neu5Gc(a2-6)GalNAc = target: Neu5Gc(a2-6)GalNAc
How it was run: as §1

[24] = target: Neu5Gc(b2-6)Gal(b1-4)GlcNAc
How it was run: as §1

B1: Glycodelin A (Homo sapiens), P09466 (protein)
chain: MLCLLLTLGVALVCGVPAMDIPQTKQDLELPKLAGTWHSMAMATNNISLMATLKAPLRVHITSLLPTPEDNLEIVLHRWENNSCVEKKVLGEKTENPKKFKINYTVANEATLLDTDYDNFLFLCLQDTTTPIQSMMCQYLARVLVEDDEIMQGFIRAFRPLPRHLWYLLDLKQMEEPCRF
glycan array binding signal (z-score) [1]: -0.431
glycan array binding signal (z-score) [2]: -0.196
glycan array binding signal (z-score) [3]: 2.02
glycan array binding signal (z-score) [4]: 2.29
glycan array binding signal (z-score) [5]: -0.452
glycan array binding signal (z-score) [6]: 1.85
glycan array binding signal (z-score) [7]: -0.464
glycan array binding signal (z-score) [8]: -0.51
glycan array binding signal (z-score) [9]: -0.335
glycan array binding signal (z-score) (Neu5Ac(a2-6)GalNAc): 4.31
glycan array binding signal (z-score) [10]: 0.353
glycan array binding signal (z-score) (Neu5Ac(a2-8)Neu5Ac): -0.379
glycan array binding signal (z-score) [11]: -0.442
glycan array binding signal (z-score) [12]: -0.512
glycan array binding signal (z-score) [13]: -0.459
glycan array binding signal (z-score) [14]: -0.388
glycan array binding signal (z-score) [15]: 1.47
glycan array binding signal (z-score) [16]: 4.64
glycan array binding signal (z-score) [17]: -0.305
glycan array binding signal (z-score) (Neu5Ac(b2-6)GalNAc): 3.68
glycan array binding signal (z-score) [18]: -0.118
glycan array binding signal (z-score) [19]: -0.454
glycan array binding signal (z-score) [20]: -0.513
glycan array binding signal (z-score) (Neu5Gc(a2-3)Gal(b1-4)Glc): -0.359
glycan array binding signal (z-score) [21]: -0.359
glycan array binding signal (z-score) [22]: -0.415
glycan array binding signal (z-score) [23]: -0.316
glycan array binding signal (z-score) (Neu5Gc(a2-6)GalNAc): -0.239
glycan array binding signal (z-score) [24]: -0.413
